Data reported in article PMC11755959.
These are yes or no findings as the source states them, for the method shown. In cells and extracts the contact can be indirect. Some results given as binding are weak or reduced against the parent protein; the word gives no strength. For some assays here: Tags and fused reporters may be left off the sequences shown.

The chains behind the UniProt entries cited, without tags or fusion partners.
UniProt P14635: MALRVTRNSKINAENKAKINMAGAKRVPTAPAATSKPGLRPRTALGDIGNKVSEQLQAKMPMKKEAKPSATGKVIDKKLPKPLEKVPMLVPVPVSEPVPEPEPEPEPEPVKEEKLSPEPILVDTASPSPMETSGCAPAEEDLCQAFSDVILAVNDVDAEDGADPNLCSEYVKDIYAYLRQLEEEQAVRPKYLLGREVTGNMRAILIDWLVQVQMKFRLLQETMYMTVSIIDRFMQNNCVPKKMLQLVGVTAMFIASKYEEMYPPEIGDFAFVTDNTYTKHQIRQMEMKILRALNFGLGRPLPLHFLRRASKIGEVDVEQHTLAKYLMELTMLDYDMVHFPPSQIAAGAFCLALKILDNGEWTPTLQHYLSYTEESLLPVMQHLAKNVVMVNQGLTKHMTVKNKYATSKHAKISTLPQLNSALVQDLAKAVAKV

How the values were obtained:
[1] = target: T1, CCNB1IP1 187–277 truncate (human) (UniProt Q9NPC3); assay: co-IP; WT and truncates (1-77, 78-186, 187-277) of CCNB1IP1 with MYC-cyclin B1; immunoprecipitation, blot for MYC; cell line not stated
T1 sequence: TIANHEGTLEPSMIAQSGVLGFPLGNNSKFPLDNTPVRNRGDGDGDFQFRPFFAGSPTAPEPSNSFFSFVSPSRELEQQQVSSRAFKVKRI

[2] = target: T2, CCNB1IP1 1–77 truncate (human) (UniProt Q9NPC3); assay: as above
T2 sequence: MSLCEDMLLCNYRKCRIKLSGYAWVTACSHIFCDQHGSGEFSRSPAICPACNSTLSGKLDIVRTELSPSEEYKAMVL

[3] = target: T3, CCNB1IP1 78–186 truncate (human) (UniProt Q9NPC3); assay: as above
T3 sequence: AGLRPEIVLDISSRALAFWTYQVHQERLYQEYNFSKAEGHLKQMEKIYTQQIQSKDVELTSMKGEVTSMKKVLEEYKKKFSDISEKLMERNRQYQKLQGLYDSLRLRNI

[4] = target: T4, FLAG-tagged CCNB1IP1 (human) (UniProt Q9NPC3); assay: as above
T4 sequence: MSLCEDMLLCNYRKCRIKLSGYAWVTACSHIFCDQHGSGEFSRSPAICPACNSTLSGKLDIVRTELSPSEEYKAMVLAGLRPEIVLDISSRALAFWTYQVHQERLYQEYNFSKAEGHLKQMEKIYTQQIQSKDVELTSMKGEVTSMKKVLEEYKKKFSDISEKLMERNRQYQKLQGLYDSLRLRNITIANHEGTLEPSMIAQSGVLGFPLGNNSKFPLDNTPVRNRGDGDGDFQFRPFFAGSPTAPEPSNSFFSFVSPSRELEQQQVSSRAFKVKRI

[5] = target: T4, FLAG-tagged CCNB1IP1 (human); assay: co-IP; FLAG-tagged CCNB1IP1 vector transfected into MHCC-97 H cells; 1% NP-40 lysis buffer (137 mM NaCl, 50 mM Tris-HCl pH 7.6, 1 mM EDTA, 10% glycerol); antibody overnight at 4 °C, protein G plus-agarose 2 h; Western blot for cyclin B1

Row | Substance | binding [1] | binding [2] | binding [3] | binding [4] | binding [5]
1 | MYC-tagged cyclin B1 (from UniProt P14635 1-433) | no binding | binds | no binding | binds | –
2 | cyclin B1 (from UniProt P14635 1-433) | – | – | – | – | binds
